# Laboratory results reported in PMC5540273 (PLoS ONE, 2017).
# For some assays here: This list holds what a sample rich in strong results left over. The entries are a selection whose mix differs from that of the whole data set.
# Key:
# Conditions in all cases: concentration: 1 μM,replicates: in singlicate; n = 1
# CAMK1D = test system: CAMK1D
# CAMK1G = test system: CAMK1G
# CAMK1 = test system: CAMK1
# CAMK2A = test system: CAMK2A
# CAMK2B = test system: CAMK2B
# CAMK2D = test system: CAMK2D
# CAMK2G = test system: CAMK2G
# CAMK4 = test system: CAMK4
# CAMKK1 = test system: CAMKK1
# CAMKK2 = test system: CAMKK2
# CASK = test system: CASK
# CDC2L1 = test system: T1, CDC2L1
# T1 construct: gene CDK11B
# CDC2L2 = test system: CDC2L2
# CDC2L5 = test system: T2, CDC2L5
# T2 construct: gene CDK13
# CDK11 = test system: T3, CDK11
# T3 construct: gene CDK19
# CDK2 = test system: CDK2
# CDK3 = test system: CDK3
# CDK4-cyclinD1 = test system: CDK4-cyclinD1
# CDK4-cyclinD3 = test system: CDK4-cyclinD3
# CDK4 = test system: CDK4
# 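Also: KINOMEscan kinase panel screen.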
SMILES,%Inh (CAMK1D) [%],%Inh (CAMK1G) [%],%Inh (CAMK1) [%],%Inh (CAMK2A) [%],%Inh (CAMK2B) [%],%Inh (CAMK2D) [%],%Inh (CAMK2G) [%],%Inh (CAMK4) [%],%Inh (CAMKK1) [%],%Inh (CAMKK2) [%],%Inh (CASK) [%],%Inh (CDC2L1) [%],%Inh (CDC2L2) [%],%Inh (CDC2L5) [%],%Inh (CDK11) [%],%Inh (CDK2) [%],%Inh (CDK3) [%],%Inh (CDK4-cyclinD1) [%],%Inh (CDK4-cyclinD3) [%],%Inh (CDK4) [%]
COc1cccc(C2=C(Nc3ccc(SC)cc3)C(=O)NC2=O)c1 [SB-331032],26,30,76,0,6,11,5,4,25,1,28,0,0,18,0,0,0,16,7,36
Cc1cc(C)cc(Oc2nccc(-c3c(-c4ccc(F)cc4)ncn3C3CCNCC3)n2)c1.O=C(O)C(F)(F)F.O=C(O)C(F)(F)F.O=C(O)C(F)(F)F [SB-284851],0,0,0,0,0,11,7,0,27,17,0,7,18,8,4,16,0,25,0,0
O=C1NC(=O)C(c2ccccc2Cl)=C1Nc1ccccc1 [SB-376715],12,5,0,13,0,27,4,7,29,15,16,0,1,10,24,0,68,35,30,0
O=C1NC(=O)C(c2ccc(Cl)cc2)=C1Nc1ccc(O)c(Cl)c1 [SB-405367],5,29,11,8,0,16,9,0,0,10,8,1,0,13,0,0,0,0,0,0
O=C(O)c1ccc(-c2nc(-c3ccc(F)cc3)c(-c3ccncc3)[nH]2)cc1 [SB-202620],2,29,9,0,13,5,11,28,16,1,14,9,0,0,8,4,3,0,6,9
O=C1NC(=O)c2c1c(-c1ccccc1)cc1[nH]c3ccc(O)cc3c21,22,10,6,0,0,11,7,0,19,1,6,22,30,3,0,34,19,47,39,0
CSc1ccc(NC2=C(c3cccc(Cl)c3)C(=O)NC2=O)cc1 [SB-341528],0,6,15,0,0,0,6,0,0,1,0,0,0,0,0,0,0,0,0,2
O=C1NC(=O)C(c2ccccc2Cl)=C1Nc1cccc(C(=O)O)c1 [SB-390526],7,0,1,2,0,0,10,0,0,1,3,0,4,0,0,0,4,16,0,32
CS(=O)(=O)c1ccccc1-c1nc(-c2ccc(F)cc2)c(-c2ccncc2)[nH]1 [SB-213663],33,0,29,0,0,0,0,0,0,0,0,7,0,25,4,0,0,28,0,0
COc1ccc(C2=C(Nc3cccc(Cl)c3)C(=O)NC2=O)cc1 [SB-326892],5,0,0,0,0,3,0,7,1,0,16,0,1,0,0,0,0,8,0,0
O=C1NC(=O)C(c2ccc(Cl)cc2)=C1Nc1cccc(C(=O)O)c1 [SB-360737],7,0,1,0,0,0,0,0,0,0,11,0,0,0,0,2,0,0,21,0
O=C1NC(=O)C(c2ccc(Cl)cc2)=C1Nc1cccc(O)c1 [SB-333613],4,14,2,6,19,9,25,0,2,13,14,0,14,8,0,0,0,0,6,9
O=C1NC(=O)C(c2ccccc2)=C1Nc1cc(Cl)c(O)c(Cl)c1 [SB-390530],0,0,6,0,0,4,4,0,0,0,0,0,7,2,0,13,34,0,10,24
O=C1NC(=O)C(c2ccc(Cl)cc2)=C1Nc1ccccc1 [SB-317661],2,0,0,18,7,0,0,0,0,0,19,0,0,7,12,0,5,13,0,2
O=C1NC(=O)C(c2ccccc2)=C1Nc1ccc(Cl)c(C(=O)O)c1 [SB-390532],0,0,0,0,0,0,2,0,0,0,19,0,0,0,0,0,4,20,0,38
Cc1ccc(C)c(Oc2nccc(-c3c(-c4ccc(F)cc4)ncn3C3CCNCC3)n2)c1.O=C(O)C(F)(F)F.O=C(O)C(F)(F)F.O=C(O)C(F)(F)F [SB-284852],18,0,0,0,7,5,10,35,99.7,16,0,0,0,7,0,0,23,9,0,0
